In article PMC5131612 (Journal of Structural Biology, 2016):

Molecular target: UAF1FL, UAF1 (9-677) (human, UniProt Q8TAF3 9-677)
Assay: SPR

Row | Binder | binding result
1 | USP12 R285D (enzyme) not shown | binds
2 | USP12 R217E (enzyme) not shown | binds

Results, then the binder that gave them:

Row | binding result | Binder
3 | binds | USP12_(E190K) (enzyme) not shown
4 | binds | USP12 F287A (enzyme) not shown
